Reference: PubChem BioAssay AID686979 (National Center for Advancing Translational Sciences (NCATS), 2013)
“And” between values parts separate entries of the source, which are not always exact repeats. Identical values can stand only once. The campaign covered roughly 420,000 compounds. About 50,000 (12%) were called active. The inconclusive results got no clear call from the source; some entries with a clear call stand among them for comparison. The call rests on the fitted dose curve; in most records, active means well fitted inhibition curve with a large enough effect; inconclusive means small, poorly fitted or top-dose-only effect; inactive means flat fitted curve, though single readings scatter. Where the call is inconclusive, the potency comes from a doubtful curve fit.

Experiment: qHTS for Inhibitors of human tyrosyl-DNA phosphodiesterase 1 (TDP1): qHTS in cells in presence of CPT; further: nearly all actives have a fitted effect of over 55% in size
Details: chicken DT40 Tdp1-/-;hTDP1 cells + 20 nM CPT, ATP luminescence, 48 h; activity change, negative = growth inhibition: at 46.2 µM (top of the series) unless noted
Method in brief: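 Chicken DT40 Tdp1-/- cells stably complemented with human TDP1 were seeded at 400 cells/well in medium containing 20 nM camptothecin, exposed to pin-transferred compounds, and grown at 37 °C for at least 48 hr. Viability was read as ATP luminescence.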
On the % scale 0 is the no-effect control and ±100 the full control effect; potency means the concentration at half of the fitted maximal effect; tags describe the fitted curve by direction and shape.

Compound | Potency | activity change, negative = growth inhibition
CN(C(=O)COC(=O)c1ccccc1Cc1ccccc1)C1CCS(=O)(=O)C1 (stereo unspecified) | inactive | 
COc1ccc(C(=O)NCCN2C(=O)S/C(=C\c3cccnc3)C2=O)c(OC)c1OC | inconclusive: 23.1 µM [inhibitor, single point] | 
CC(C)(C)c1ccc(SCCc2cccnc2)cc1 | inactive | 
CCN(C(=O)c1cc2c(=O)n3ccccc3nc2n1CCCOC)C1CCCCC1 | inconclusive: 29.1 µM [inhibitor, single point] | 
CC1CC(C)CN(C(=O)CCC(=O)Nc2nnc(C3CCCCC3)s2)C1 (stereo unspecified) | inconclusive: 29.1 µM [inhibitor, single point] | 
Cc1cccc(C)c1NC(=O)C(c1cccc([N+](=O)[O-])c1)N(C)C(=O)c1ccccn1 (stereo unspecified) | inconclusive: 10.3 µM [inhibitor, partial curve] | 
CCOC(=O)c1nn(C)c2[nH]c(=O)n(C)c(=O)c12 | inconclusive: 0.731 µM [inhibitor, single point] | 
COc1ccc(NC(=O)CSc2c3c(nc4ccccc24)CCCC3)c(OC)c1 | active: 20.6 µM | 
COc1ccc(Cl)cc1NC(=O)c1cc2c(s1)-c1ccccc1OC2 | inconclusive: 2.06 µM [inhibitor, partial curve] | 
Cc1ccc2c(C)c(C(=O)N(C)CCC3CCCCO3)oc2c1C (stereo unspecified) | inconclusive: 18.4 µM [inhibitor, single point] | 
CS(=O)(=O)N(CC(=O)NCCSc1ccccc1)c1cc(C(F)(F)F)ccc1Cl | inconclusive: 25.9 µM [inhibitor, single point] | 
O=C1OC(=O)c2cc([N+](=O)[O-])ccc21 | inactive | 
Cc1ccsc1C(=O)NNC(=O)c1ccccc1F | inactive | 
COc1ccc(CC(=O)Nc2cccc(C(C)=O)c2)cc1S(=O)(=O)N1CCOCC1 | inactive | 
Oc1c(Br)cc(Br)cc1-c1nc2ccccc2s1 | inactive | 
Cc1ccccc1CSCCNC(=O)c1ccc(N(C)S(=O)(=O)c2ccccc2)cc1 | active: 18.4 µM | 
COc1ccc(NC(=O)C(=O)NCCN2CCN(C(=O)c3ccc(C(C)(C)C)cc3)CC2)cc1 | active: 16.4 µM | 
COc1ccc(-c2cc(=O)c3cc(OC)ccc3o2)cc1 | inactive | 
CCOC(=O)C1CN(S(=O)(=O)c2ccc(OC)cc2)c2cc(Cl)ccc2O1 (stereo unspecified) | inconclusive: 25.9 µM [inhibitor, single point] | 
Oc1ccccc1CN1CCCC(N2CCN(c3cccc(C(F)(F)F)c3)CC2)C1 (stereo unspecified) | active: 18.4 µM | 
Cc1cccc(COC(=O)CCCNC(=O)c2ccc(Cl)cc2)c1 | inactive | 
COc1cccc(C2C(C(=O)Nc3ccccc3)=C(C)Nc3nc(-c4ccccc4)nn32)c1 (stereo unspecified) | inconclusive: 9.2 µM [inhibitor, partial curve] | 
CCOc1ccc(-c2cc(C(=O)NCc3ccccc3)[nH]n2)c(C)c1 | inconclusive: 3.26 µM [inhibitor, full curve] | 
CCOC(=O)c1ccc(S(=O)(=O)NC2CCC(C)CC2)cc1 (stereo unspecified) | active: 16.4 µM | 

Compound | Potency | activity change, negative = growth inhibition
COc1ccc(OC)c(NC(=O)CSc2cn(CC(=O)N3CCOCC3)c3ccccc23)c1 | inconclusive: 16.4 µM [inhibitor, partial curve, poor fit] | 
CCn1ccc(C(=O)Nc2cccc(Cl)c2)n1 | inactive | 
COc1ccc(C(=O)COC(=O)c2cc(S(=O)(=O)N3CCCCC3)ccc2N2CCOCC2)c(OC)c1 | inconclusive: 20.6 µM [inhibitor, single point] | 
Cc1ccccc1NC(=O)CSC(=O)c1ccccc1 | inconclusive: 0.0065 µM [inhibitor, full curve, poor fit] | 
CCc1ccc(-c2csc3ncn(CC(=O)N4CCOCC4)c(=O)c23)cc1 | inactive | 
CC1CCCC(NS(=O)(=O)c2cc(Br)cnc2N)C1C (stereo unspecified) | inactive | 
CSc1nnc(-c2sc3cc(C(F)(F)F)cnc3c2-c2ccccc2)n1C | active: 4.61 µM | 
Cc1ccc(-c2nc(CS(=O)CC(=O)N3CCN(c4ccccc4)CC3)c(C)o2)cc1 (stereo unspecified) | active: 23.1 µM | 
Cc1ccc(C)c(C(O)c2ncc(-c3ccccc3F)[nH]2)c1 (stereo unspecified) | inconclusive: 23.1 µM [inhibitor, single point] | 
O=C(c1ccc(S(=O)(=O)NCc2ccco2)cc1)N1CCN(Cc2ccc3c(c2)OCO3)CC1 | inconclusive: 29.1 µM [inhibitor, single point] | 
CCCN(CCC)C(=O)C1CCCN(S(=O)(=O)c2ccc3c(c2)oc(=O)n3C)C1 (stereo unspecified) | inactive and inconclusive: 7.31 µM [inhibitor, partial curve] | 
Cc1cc(C)cc(-n2cc(C(=O)O)c(=O)cc2C)c1 | inactive | 
O=C(NC1CCN(C(=O)NCc2ccccc2)CC1)c1ccccc1 | inactive | 
C=CC[C@H](CC(=O)NCCO)C(=O)N[C@@H](COC(=O)[C@H](CC=C)CC(=O)OC(C)(C)C)Cc1ccccc1 | inconclusive: 18.4 µM [inhibitor, partial curve] | 
CC(=O)Nc1ccc(NC(=O)C(NS(=O)(=O)c2cccc3nsnc23)C(C)C)cc1 (stereo unspecified) | inactive | 
Cc1ccc(CN(CC2CCCO2)C(=O)CN2C(=O)C(C(C)C)Oc3ccccc32)o1 (stereo unspecified) | active: 25.9 µM | 
COC(=O)c1scc(S(=O)(=O)C(C)C)c1N/N=C(\C#N)C(=O)c1ccc(Cl)cc1 | inconclusive: 29.1 µM [inhibitor, single point] | 
CCC(O)c1c(-c2ccccc2)nn(C)c1Cl (stereo unspecified) | inconclusive: 7.31 µM [inhibitor, partial curve] | 
Cc1cc(C(F)(F)F)nn1Cc1n[nH]c(=S)n1Cc1ccccc1 | inactive | 
COc1ccc(C(CNC(=O)C(CCSC)NC(=O)c2ccccc2OC)N2CCCCC2)cc1 (stereo unspecified) | inconclusive: 18.4 µM [inhibitor, single point] | 
Cc1ccc(CN2CC(C(=O)Nc3ccncc3)CC2=O)cc1 (stereo unspecified) | inactive | 
O=C(CN1C(=O)S/C(=C\c2ccc(F)cc2)C1=O)NCCCn1ccnc1 | inconclusive: 25.9 µM [inhibitor, single point] | 
CC(=O)Nc1ccc(S(=O)(=O)NCCc2ccccc2)cc1 | inconclusive: 23.1 µM [inhibitor, partial curve, poor fit] | 
Cc1cc(C(=O)OCC(=O)NCc2ccc(Cl)cc2Cl)c(C)o1 | inactive | 

Compound | Potency | activity change, negative = growth inhibition
CN(CC(=O)Nc1ccc(S(N)(=O)=O)cc1)C1CCCCC1 | inconclusive: 7.31 µM [inhibitor, partial curve] | 
COC(=O)/C=C/c1cc(O)ccc1O | active: 0.731 µM | 
C=CCN1C(=O)C2(c3ccccc31)C1CCCC=C1C(C#N)=C(N)C2(C#N)C#N (stereo unspecified) |  | inconclusive: -35.5% [inhibitor]
CN(C(=O)c1ccc(NC(=O)Cc2cccc(NC(=O)C3CCCN(C(=O)CCc4ccccc4)C3)c2)cc1)C1CC1 (stereo unspecified) | inconclusive: 29.1 µM [inhibitor, single point] | 
Cc1ccc(C(=O)c2oc3ccccc3c2NC(=O)c2cc(-c3ccccc3)on2)cc1F | inactive | 
CCC1=NN(C(=O)C(=O)Nc2ccccc2OC)C(O)(C(F)(F)F)C1 (stereo unspecified) | inactive | 
CCOc1ccc(OCC)c(NC(=O)CN(c2ccc(C)cc2)S(=O)(=O)c2c(C)noc2C)c1 | inconclusive: 20.6 µM [inhibitor, single point] | 
N#C/C(=C/c1ccc(N2CCOCC2)o1)c1ccc(Br)cc1 | active: 9.2 µM | 
CC(C)(C)NC(=O)NC(=O)CN1CCN(c2cccc(Cl)c2)CC1 | inconclusive: 13 µM [inhibitor, single point] | 
COc1ccc(C)cc1NC(=O)C1CCN(C(=O)c2ccc(C(C)(C)C)cc2)CC1 | inconclusive: 23.1 µM [inhibitor, single point] | 
O=C(N[C@H]1C/C=C\C[C@@H](CC(=O)N(CCO)Cc2ccccc2)C(=O)N2CCC[C@H]2COC1=O)OCC1c2ccccc2-c2ccccc21 | active: 13 µM | 
Cn1c(=O)c2c(nc(SCC(=O)Nc3ccccc3N3CCCCC3)n2C)n(C)c1=O | inconclusive: 23.1 µM [inhibitor, single point] | 
CCC(=O)Nc1nc(-c2ccc3c(c2)OCCO3)cs1 | inconclusive: 16.4 µM [inhibitor, single point] | 
CCC1=C2CC[C@H]3C(=O)N(CC)C(=O)[C@H]3[C@H]2[C@@]2(Cc3ccccc3)C(=NCc3ccccc3)OC(=O)N2C1=O |  | inconclusive: -21.8% [inhibitor]
Cc1ccc(C)c(NC(=O)C2CCCN(S(=O)(=O)c3ccc4[nH]c(=O)ccc4c3)C2)c1 (stereo unspecified) | inconclusive: 18.4 µM [inhibitor, single point] | 
COc1cc(CC(=O)Nc2ccccc2N2CCCCC2)cc(OC)c1OC | inconclusive: 29.1 µM [inhibitor, single point] | 
CC(C)Cc1nnc(NC(=O)c2ccc3c(c2)NC(=O)C(C)S3)s1 (stereo unspecified) | inconclusive: 23.1 µM [inhibitor, single point] | 
COc1cc(C(=O)OCCCN2CCOCC2)cc(OC)c1OC | inactive | 
C#CCN(C[C@H]1[C@H](OC(=O)NCc2ccco2)[C@H](OC(=O)NCc2ccco2)C[C@@H](C(=O)OC)[C@H]1C(=O)OC)S(=O)(=O)c1ccc(C)cc1 | active: 20.6 µM | 
CCCCCCC(=O)NC(Nc1ccc(S(N)(=O)=O)cc1)C(Cl)(Cl)Cl (stereo unspecified) | inconclusive: 18.4 µM [inhibitor, single point] | 
C=C[C@]1(C)C=C2C(=O)[C@@]3(O)OC(=O)[C@@]4(CCCC(C)(C)[C@H]34)[C@@]2(O)CC1 | active: 0.651 µM | 
O=C(NCc1ccccc1)C1c2ccccc2OCC(=O)N1CCc1ccccc1 (stereo unspecified) | inactive | 
O=c1c(-c2cccnc2)nc2ccccc2n1C(c1ccccn1)c1nc2ccccc2[nH]1 (stereo unspecified) | inconclusive: 29.1 µM [inhibitor, single point] | 
